The supplement of paper PMC4996465

Columns and labels:
[1] = system: Nalm-6; assay: log AC50 of viability decrease (48 h) (log10 M); higher = less potent
Experimental: (§1)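 Eleven-dose screen of the NCATS MIPE 3 library on cells without co-treatment; CellTiter-Glo after 48 h. AC50 from the curve fit; only inhibitory curves of the better fit classes are listed.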

[2] = system: KB3-1; assay: as above
Experimental: as §1

[3] = system: Nalm-6; assay: viability (% of DMSO control); higher = more viable cells
Experimental: (§2)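 Eleven-dose screen of the NCATS MIPE 3 library on cells without co-treatment; CellTiter-Glo after 48 h, as % of DMSO wells.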

[4] = system: KB3-1; assay: as above
Experimental: as §2

| Structure (SMILES) | log AC50 of viability decrease ([1]; run: 1) | log AC50 of viability decrease ([1]; run: 2) | log AC50 of viability decrease [2] | viability ([3]; run: 1, 0.00078 µM) [%] | viability ([3]; run: 1, 0.00234 µM) [%] | viability ([3]; run: 1, 0.00702 µM) [%] | viability ([3]; run: 1, 0.0211 µM) [%] | viability ([3]; run: 1, 0.0632 µM) [%] | viability ([3]; run: 1, 0.19 µM) [%] | viability ([3]; run: 1, 0.569 µM) [%] | viability ([3]; run: 1, 1.71 µM) [%] | viability ([3]; run: 1, 5.12 µM) [%] | viability ([3]; run: 1, 15.4 µM) [%] | viability ([3]; run: 1, 46.1 µM) [%] | viability ([3]; run: 2, 0.00078 µM) [%] | viability ([3]; run: 2, 0.00234 µM) [%] | viability ([3]; run: 2, 0.00702 µM) [%] | viability ([3]; run: 2, 0.0211 µM) [%] | viability ([3]; run: 2, 0.0632 µM) [%] | viability ([3]; run: 2, 0.19 µM) [%] | viability ([3]; run: 2, 0.569 µM) [%] | viability ([3]; run: 2, 1.71 µM) [%] | viability ([3]; run: 2, 5.12 µM) [%] | viability ([3]; run: 2, 15.4 µM) [%] | viability ([3]; run: 2, 46.1 µM) [%] | viability ([4]; 0.00078 µM) [%] | viability ([4]; 0.00234 µM) [%] | viability ([4]; 0.00702 µM) [%] | viability ([4]; 0.0211 µM) [%] | viability ([4]; 0.0632 µM) [%] | viability ([4]; 0.19 µM) [%] | viability ([4]; 0.569 µM) [%] | viability ([4]; 1.71 µM) [%] | viability ([4]; 5.12 µM) [%] | viability ([4]; 15.4 µM) [%] | viability ([4]; 46.1 µM) [%] |
| --- | --- | --- | --- | --- | --- | --- | --- | --- | --- | --- | --- | --- | --- | --- | --- | --- | --- | --- | --- | --- | --- | --- | --- | --- | --- | --- | --- | --- | --- | --- | --- | --- | --- | --- | --- | --- |
| c1ccc2c(-c3cnn4cc(-c5ccc(N6CCNCC6)cc5)cnc34)ccnc2c1 | -5.18 | -4.83 | -4.73 | 109 | 109 | 117 | 117 | 111 | 106 | 105 | 92.4 | 74.9 | 2.25 | 0.35 | 104 | 105 | 104 | 109 | 105 | 99.4 | 97.1 | 87.7 | 84.9 | 41.4 | 1.01 | 105 | 104 | 102 | 105 | 103 | 102 | 99.5 | 95.2 | 85.3 | 65.9 | 0.333 |
| Cc1ccc(C(N)=O)cc1Nc1nccc(-c2cn(C(C)C)c3cnccc23)n1 | -5.38 | -5.58 | -5.13 | 92 | 108 | 111 | 99.4 | 112 | 122 | 102 | 97.3 | 38.7 | 2.1 | 2.44 | 102 | 106 | 106 | 97 | 109 | 111 | 103 | 90.5 | 13.4 | 0.878 | 2.86 | 96.2 | 97.9 | 94.6 | 95.5 | 93.2 | 98.8 | 102 | 103 | 60.3 | 31.4 | 14.7 |
| Cc1ccc(S(=O)(=O)Nc2cc(Cl)ccc2C(=O)Nc2nc(-c3ccccc3)cs2)cc1 | -5.38 | -5.23 | -5.68 | 116 | 114 | 122 | 120 | 107 | 114 | 109 | 86.9 | 48.9 | 8.22 | 3.92 | 107 | 104 | 112 | 110 | 100 | 104 | 92.4 | 88 | 59.6 | 7.49 | 2.56 | 98.7 | 98.7 | 99.2 | 99.5 | 100 | 99 | 91 | 65.2 | 44.7 | 29.7 | 30.2 |
| Cc1cnc(Nc2ccc(F)cc2Cl)nc1-c1c[nH]c(C(=O)N[C@H](CO)c2cccc(Cl)c2)c1 | -4.78 | -4.63 | -4.68 | 116 | 112 | 125 | 118 | 118 | 118 | 107 | 97.3 | 91.1 | 60.5 | -1.26 | 107 | 112 | 110 | 113 | 117 | 113 | 110 | 104 | 107 | 92.1 | -1.01 | 102 | 105 | 98.6 | 107 | 101 | 99.2 | 101 | 93.7 | 83.8 | 77.6 | 0.751 |
| Cc1cn2c(-c3cn[nH]c3)cnc2c(Nc2ccc(C(=O)N3CCNCC3)cc2F)n1 | -4.68 | -4.73 | -4.88 | 98.3 | 101 | 107 | 114 | 104 | 102 | 120 | 109 | 102 | 88.8 | 38.7 | 102 | 112 | 107 | 105 | 109 | 102 | 93.3 | 98.1 | 95.3 | 78 | 23.5 | 98.1 | 104 | 98.8 | 104 | 99.7 | 102 | 97.9 | 98.3 | 82.3 | 62.8 | 42 |
| Cc1n[nH]c2ccc(-c3cncc(OC[C@@H](N)Cc4ccccc4)c3)cc12 | -5.88 | -5.93 | -5.88 | 111 | 106 | 97.1 | 101 | 111 | 108 | 78.8 | 44.4 | 4.89 | 1.19 | 0.324 | 108 | 110 | 106 | 103 | 110 | 107 | 72.8 | 42.2 | 2.15 | 0.892 | -0.396 | 100 | 104 | 105 | 103 | 104 | 100 | 81.8 | 45.1 | 14.3 | 15.1 | 2.73 |
| CCN(CC)CCOC1=CC=C(NC2=NC=C3\C=C(/C(=O)N(C)C3=N2)C4=C(Cl)C=CC=C4Cl)C=C1 | -6.08 | -5.93 | -6.48 | 112 | 117 | 109 | 95.8 | 95.8 | 75 | 73.6 | 30.9 | 13.6 | 4.75 | 0.234 | 108 | 116 | 108 | 107 | 91.9 | 83.5 | 77.6 | 40.7 | 13.1 | 4.63 | 0.268 | 106 | 104 | 104 | 93.5 | 88 | 90.7 | 18.1 | 7.37 | 7.48 | 6.75 | 0.405 |
| CCN1CCN(CC1)CC(=O)NC2=CC=C(C3=C2C4=C(S3)C=CC=C4)C5=C6O\C(=C/C(=O)C6=CC=C5)N7CCOCC7 | -6.18 | -6.03 | -5.78 | 93.1 | 88.2 | 100 | 86.9 | 80.7 | 77 | 46.6 | 27.2 | 6.94 | 1.61 | -0.424 | 112 | 96.9 | 102 | 106 | 98.9 | 81.6 | 61.1 | 37.4 | 2.07 | 1.02 | -0.162 | 106 | 108 | 94.9 | 98.3 | 90.8 | 78.3 | 65.6 | 56.2 | 45 | 43.4 | 14.8 |
| CCn1c(-c2nonc2N)nc2cnc(Oc3cccc(NC(=O)c4ccc(OCCN5CCOCC5)cc4)c3)cc21 | -4.73 | -4.73 | -5.13 | 91.9 | 101 | 90.5 | 84.4 | 84.9 | 75.5 | 75 | 56.8 | 62.3 | 54.9 | 4.15 | 99 | 99.4 | 101 | 102 | 91.8 | 93.2 | 82.7 | 78.8 | 83.6 | 54.8 | 2.74 | 93.7 | 91.3 | 87.8 | 92.5 | 94.2 | 88.3 | 84.4 | 76.5 | 69 | 62.7 | 48.9 |
| CN(C)c1ccc(Nc2nc(N)n(C(=O)c3c(F)cccc3F)n2)cc1 | -4.83 | -4.63 | -4.73 | 105 | 118 | 122 | 115 | 113 | 112 | 88.9 | 69.6 | 79.7 | 75.3 | 20.6 | 113 | 109 | 110 | 111 | 105 | 106 | 96.4 | 83.9 | 88.4 | 78.9 | 1.84 | 99.7 | 96.4 | 101 | 98.2 | 101 | 99.9 | 91.4 | 84.4 | 83.2 | 87.7 | 59.6 |

Viability of KB3-1 and Nalm-6 cells after 48 h of drug alone (CellTiter-Glo), 11 doses over about 4.5 log units. % of DMSO wells, lower = more cell loss; AC50 from the fitted curve, lower = more potent. No active / inactive call. Nalm-6 was screened in two runs. AC50 is listed only for well-fitted inhibitory curves. KB3-1 is a HeLa-derived carcinoma line, Nalm-6 a B-cell precursor leukaemia line.
